The structures appear in SMILES notation. Over roughly 110,000 compounds, “z-score” has its median near -0.1; the highest 2% begin near 2. This is one part of the list. Activity calls are given as the source filed them.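 Rule for the calls: active = z-score in the third read window above 3 or below -3; inactive = the rest.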

The target of this experiment is Metabotropic glutamate receptor 8 (Rattus norvegicus) (UniProt P70579). Briefly: rat mGluR8 modulators via GIRK flux, primary screen, cell-based, thallium flux, HTS (AID 488969). As to conditions: HEK293 rat mGluR8, GIRK (G protein-gated inwardly rectifying potassium channel) thallium flux, FluoZin2; at 10 µM; stronger effect = higher value; submaximal glutamate (EC20) added with thallium.
Sequence of UniProt P70579 (P70579 whole entry, looked up): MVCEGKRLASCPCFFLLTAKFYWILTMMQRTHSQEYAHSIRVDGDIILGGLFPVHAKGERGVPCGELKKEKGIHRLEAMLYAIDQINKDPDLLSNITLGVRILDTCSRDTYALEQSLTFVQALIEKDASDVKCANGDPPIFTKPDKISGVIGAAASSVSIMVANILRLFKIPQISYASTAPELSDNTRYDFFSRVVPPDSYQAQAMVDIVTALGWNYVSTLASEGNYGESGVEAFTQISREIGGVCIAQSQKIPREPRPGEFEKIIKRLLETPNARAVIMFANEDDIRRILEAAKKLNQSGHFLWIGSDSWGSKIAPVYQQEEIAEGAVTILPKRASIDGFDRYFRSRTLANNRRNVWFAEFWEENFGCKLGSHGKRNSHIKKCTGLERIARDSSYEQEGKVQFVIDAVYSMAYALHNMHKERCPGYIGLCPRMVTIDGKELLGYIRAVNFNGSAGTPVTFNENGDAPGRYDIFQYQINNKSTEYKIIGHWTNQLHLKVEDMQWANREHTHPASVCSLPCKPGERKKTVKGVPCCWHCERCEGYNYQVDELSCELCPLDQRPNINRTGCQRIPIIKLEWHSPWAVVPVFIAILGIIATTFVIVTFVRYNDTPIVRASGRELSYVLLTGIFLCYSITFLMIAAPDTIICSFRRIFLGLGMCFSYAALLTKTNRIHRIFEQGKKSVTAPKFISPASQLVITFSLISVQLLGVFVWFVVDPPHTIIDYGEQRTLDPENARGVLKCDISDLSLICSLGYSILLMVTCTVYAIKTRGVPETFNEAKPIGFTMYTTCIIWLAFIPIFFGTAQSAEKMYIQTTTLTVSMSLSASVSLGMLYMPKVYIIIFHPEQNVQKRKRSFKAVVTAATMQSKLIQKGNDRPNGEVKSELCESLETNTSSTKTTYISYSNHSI
Compound `O=C(Oc1ccccc1)c1ccccc1OS(=O)(=O)c1ccccc1` returned a z-score of -0.195.

With `COCCCN(C(=O)Nc1ccc(C)c(C)c1)C(C)c1ccccn1` (stereo unspecified), the z-score is -0.345.

With `COc1ccc(C(=O)NNC2=NC(C)(C)Cc3ccccc32)cc1`, the z-score was determined as 0.619.

For `CCc1cc2c(CN3CCN(CCO)CC3)cc(=O)oc2cc1O`, the z-score was determined as 0.149.

`CC(=O)Nc1ccc(S(=O)(=O)NNC(=O)c2cc3c4ccccc4n(C)c3s2)cc1` gave a z-score of -0.78.

In the case of `CCOC(=O)c1ccc(Nc2ncnc3nc[nH]c23)cc1`, the z-score was -0.0179.

Compound `CCN(CC)c1ccc(NC(=O)CSc2ccsc2[N+](=O)[O-])c(C)c1` came in with a z-score of -0.0677.

Compound `CN(C)c1ccc(C2N(C(=O)N3CCOCC3)CCN2S(=O)(=O)c2ccccc2)cc1` (stereo unspecified) gave a z-score of -0.722.

`CCC(C)C(=O)Nc1ccc(OC)cc1OC` (stereo unspecified) came in with a z-score of -0.0848.

Consider `CC1CCC(C(C)C)C(OC(=O)Cn2c(-c3ccc(F)cc3)[n+](C)c3ccccc32)C1` (stereo unspecified), for which the z-score is -0.093.

Regarding `COc1cccc(C(=O)N2CCCc3ccccc32)c1`, the z-score is -1.31.

Turning to `CC1CN(Cc2nc3c(c(=O)n(C)c(=O)n3C)n2CCCO)CC(C)O1` (stereo unspecified), the z-score is -0.388.

On to `CN1CC=C2C(C#N)=C(N)C(C#N)(C#N)[C@H](c3ccoc3)[C@H]2C1`, for which the z-score was found to be 0.459.

As for `O=Cc1ccc(OC2OCCOC2Oc2ccc(C=O)cc2)cc1` (stereo unspecified), the z-score was -0.288.

Compound `CC1(c2cccc3ccccc23)NC(=O)N(CC(=O)NC2CCS(=O)(=O)C2)C1=O` (stereo unspecified) came in with a z-score of -0.069.

Regarding `O=S(=O)(c1ccc(N2CCCC2)nc1)N1CCOCC1`, the z-score is -0.203.

On to `O=C1Nc2ccccc2C1(c1ccccc1)c1ccccc1`, for which the z-score was -0.565.

In turn, `CCOC(=O)c1ccc(NC(=O)CCC(CC)C(=O)O)cc1` (stereo unspecified) yielded a z-score of -0.395.

Compound `COc1ccc(-n2cc(-c3ccc(C)cc3)[n+]3c2SCC3)cc1` showed a z-score of -0.0247.

The compound `Cc1ccc(C(=O)N/C(=C\c2cccs2)C(=O)NCc2ccncc2)cc1` gave a z-score of -0.136.

As for `COc1cccc(NC(=S)N/N=C2/CCCCc3ccccc32)c1`, the z-score is active: 8.28.

For the compound `CCCCn1c(CN(C)Cc2ccccc2)nc2c1c(=O)n(C)c(=O)n2C`, the z-score was determined as 0.165.

In turn, `O=C(Nc1cccc(S(=O)(=O)N2CCOCC2)c1)c1c2c(nc3ccccc13)CCC2` returned a z-score of 0.614.

Consider `COc1cccc(NC(=O)CCNC(=O)Cn2ccc3ccccc3c2=O)c1`, for which the z-score was found to be 0.105.

`COc1ccc(O)c(-c2[nH]ncc2C(=O)c2ccccc2C)c1` yielded a z-score of 0.0126.

Compound `COc1cc(OC)cc(-c2nnc(Sc3ccc(C=O)cc3[N+](=O)[O-])o2)c1` came in with a z-score of -0.277.

In turn, `OCC(O)C(O)C(O)C(O)C1NCCS1` (stereo unspecified) yielded a z-score of -0.0483.

In turn, `CCN1CCN(C(=O)c2ccc3c(c2)N(Cc2ccc(F)cc2)C(=O)c2ccccc2S3=O)CC1` (stereo unspecified) gave a z-score of 0.168.

The compound `O=C(Nc1cc(F)cc(F)c1)c1sc(Cl)nc1-c1ccccc1` came in with a z-score of -0.761.

Compound `N#Cc1nc(-c2ccccc2)oc1NCc1ccco1` registered a z-score of -0.705.

As to `Cc1coc2cc3oc(=O)c(Cc4ccccc4)c(C)c3cc12`, the z-score was -0.211.

For the compound `CC(/C=C/c1cccc([N+](=O)[O-])c1)=N/NC(=O)c1cccnc1`, the z-score was 0.153.

Regarding `O=C(CSc1nc2ccccc2[nH]1)NC1CCCc2ccccc21` (stereo unspecified), the z-score came out at 2.41.

Compound `N=c1c(-c2nc3ccccc3[nH]2)cc(C(=O)c2cccs2)nn1-c1ccccc1` showed a z-score of -0.503.

Turning to `CC(C)N=C(NS(=O)(=O)c1ccccc1)C(Cl)(Cl)Cl`, the z-score is -0.332.

With `CCN(CC)S(=O)(=O)c1cccc(-c2cn3cc(C)ccc3n2)c1`, the z-score was -0.0561.

Consider `O=S(=O)(N/N=C\c1cccn1-c1ccccc1)c1ccc2ccccc2c1`, for which the z-score was -0.422.

Regarding `Cc1c(CCOC(=O)C23CC4CC(CC(C)(C4)C2)C3)sc[n+]1Cc1ccccc1`, the z-score was -0.00408.

Compound `COc1ccc(Cn2c(SC)nc3ccccc32)cc1[N+](=O)[O-]` showed a z-score of -0.0198.

In the case of `Cc1ccc(NC(=O)C(NS(=O)(=O)c2cccc3nsnc23)C(C)C)nc1` (stereo unspecified), the z-score turned out to be 0.00924.

As to `CSc1ncccc1C(=O)OCn1nnc2ccccc2c1=O`, the z-score turned out to be 0.583.

`Cn1nnc(NC(=O)c2ccccc2F)n1`: the z-score is 0.261.

`O=C1CC(c2ccccc2)N1c1ccccc1` (stereo unspecified) yielded a z-score of -0.0215.

As for `CCn1ncc(/C=C/C(=O)NCc2cn(C)nc2C)c1C`, the z-score is 0.00593.

In turn, `Cc1cc(C(=O)OCC(=O)Nc2cccc(S(=O)(=O)N3CCOCC3)c2)c(C)o1` gave a z-score of -0.115.

`CCCCn1c(N)c(Sc2ccc(Cl)cc2)c(=O)[nH]c1=O` came in with a z-score of -1.52.

For `O=C(Nc1c2c(nn1-c1ccc(F)cc1)CS(=O)C2)C12CC3CC(CC(C3)C1)C2` (stereo unspecified), the z-score came out at 0.22.

With `Cc1ccc2nc(Cl)c(/C=N/NC(=O)c3ccccc3O)cc2c1`, the z-score was -0.193.

The compound `COc1ccc(-c2ccc(=O)n(CC(=O)NCc3ccco3)n2)cc1` gave a z-score of -0.186.

As for `CCCCNC(=O)c1onc(CSc2ccc(F)cc2)c1C(=O)O`, the z-score is -0.458.

In turn, `Cc1cnc(C)c(N2CCC(C(=O)NCc3ccco3)CC2)n1` came in with a z-score of 0.265.

For `CCN1C(=O)C2C(c3cccc(F)c3)NC(C)(C(=O)OC)C2C1=O` (stereo unspecified), the z-score is 0.07.

The compound `CCOc1ccc(/C=N/NC(=O)C2(O)c3ccccc3-c3ccccc32)cc1` gave a z-score of -0.134.

The compound `COc1ccc(C(=O)NC(=S)Nc2nnn(C)n2)cc1` came in with a z-score of -0.935.

`CCOC(=O)c1c(NC(=S)NC(C)=O)sc(C)c1C`: the z-score came to 0.353.

As to `Cc1occc1-c1nnc(SCC(=O)Nc2ccc3c(c2)OCO3)n1CC1CCCO1` (stereo unspecified), the z-score is -0.473.

The compound `CC(C)(C)NC(=O)Nc1ccccc1C(N)=O` yielded a z-score of 0.13.

Turning to `CC(=O)Nc1cccc(NC(C)=C(C#N)C#N)c1`, the z-score is -0.0637.

Consider `CCN(CC)C(=O)NC(c1ccc(C)c(F)c1)C(Cl)(Cl)Cl` (stereo unspecified), for which the z-score was -0.501.

Take `COc1ccc(/C=C/C(=O)Nc2ccc3c(c2)OCCO3)cc1OC`: the z-score is 0.00357.

In the case of `O=C(CSc1ccccc1)N1CCN(c2ccccc2)CC1`, the z-score was -0.0289.

`O=C(CSc1nnc(Nc2ccccc2F)s1)Nc1cccc(S(=O)(=O)N2CCCCC2)c1`: the z-score was -0.487.

The compound `S=C1NC(c2cccs2)=CC(c2ccc(Br)cc2)N1` (stereo unspecified) had a z-score of 0.185.

In turn, `Cc1ccc(Nc2cccccc2=O)cc1` showed a z-score of 0.593.

Compound `Cc1cc(/C=N/NC(N)=S)c(C)n1-c1ccc(Cl)c(Cl)c1` yielded a z-score of -0.189.

`COc1ccc2nc(NC3=NCCC3)sc2c1` came in with a z-score of 0.827.

With `COc1ccc(C(=O)c2ccc(N3CCOCC3)cc2)c(OC)c1`, the z-score came to 0.0558.

With `O=C(N/N=C\c1cccc(OC(=O)c2ccco2)c1)c1ccc2c(c1)OCO2`, the z-score was -0.123.

As to `CCS(=O)(=O)C(=C1Nc2ccccc2N1)S(=O)(=O)CC`, the z-score came to 0.884.

`Cc1ccc(C2C3=C(CC(C)(C)CC3=O)N(CCN3CCOCC3)C3=C2C(=O)CC(C)(C)C3)cc1` came in with a z-score of -2.9.

`Cc1cccc(C(=O)NNC(=O)C(=O)NC(C)(C)C)c1` showed a z-score of 2.45.
